The IC50 comes from the fitted curve, where viability falls to half of the control; fits outside the tested doses are given as limits. AUC, from the same fit, is the share of area under the viability curve across the 256-fold dose range; the more sensitive the line, the further below 1. For part of these data: The top dose, if marked as inferred, was calculated from the reported fits.
What was measured:
Assay in all cases: Viability of human cancer cell lines after 72 h of drug (GDSC screen)
Bosutinib = compound: COc1cc(Nc2c(C#N)cnc3cc(OCCCN4CCN(C)CC4)c(OC)cc23)c(Cl)cc1Cl [Bosutinib]; conditions: top dose 2 µM
Description: (§1)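 Human cancer cell lines in 384-well plates, medium with 10% serum, drug for 72 h over a 256-fold dose range (nine 2-fold or five 4-fold steps up to the top dose). Adherent lines were fixed and stained with the nucleic acid dye Syto60, suspension lines read with resazurin; signal relative to control wells, capped at 0 and 100%. One two-parameter sigmoid per drug and line, fitted in a mixed model over all curves with the slope shared within a line.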

Roscovitine = compound: CC[C@H](CO)Nc1nc(NCc2ccccc2)c2ncn(C(C)C)c2n1 [Roscovitine]; conditions: top dose 16 µM; top dose inferred
Description: as §1

IOX2 = compound: O=C(O)CNC(=O)c1c(O)c2ccccc2n(Cc2ccccc2)c1=O [IOX2]; conditions: top dose 0.1 µM; top dose inferred
Description: as §1

Midostaurin = compound: CO[C@@H]1[C@H](N(C)C(=O)c2ccccc2)C[C@H]2O[C@]1(C)n1c3ccccc3c3c4c(c5c6ccccc6n2c5c31)C(=O)NC4 [Midostaurin]; conditions: top dose 0.512 µM; top dose inferred
Description: as §1

Mitomycin C = compound: CO[C@@]12[C@H](COC(N)=O)C3=C(C(=O)C(C)=C(N)C3=O)N1C[C@@H]1N[C@@H]12 [Mitomycin C]; conditions: top dose 16 µM
Description: as §1

NVP-BHG712 = compound: Cc1ccc(C(=O)Nc2cccc(C(F)(F)F)c2)cc1Nc1nc(-c2cccnc2)nc2c1cnn2C [NVP-BHG712]; conditions: top dose 10.24 µM; top dose inferred
Description: as §1

| Cell Line | AUC (Bosutinib) | IC50 (Bosutinib) | AUC (Roscovitine) | IC50 (Roscovitine) | AUC (IOX2) | IC50 (IOX2) | AUC (Midostaurin) | IC50 (Midostaurin) | AUC (Mitomycin C) | IC50 (Mitomycin C) | AUC (NVP-BHG712) | IC50 (NVP-BHG712) |
| --- | --- | --- | --- | --- | --- | --- | --- | --- | --- | --- | --- | --- |
| EW-11 (Ewing sarcoma, adherent) | 0.888 | > 2 µM | 0.972 | > 16 µM | 0.977 | > 0.1 µM | 0.95 | > 0.512 µM | 0.389 | 0.453 µM | 0.955 | > 10.2 µM |
| NCI-H2141 (small cell lung carcinoma, suspension) | 0.989 | > 2 µM | 0.941 | > 16 µM | 0.99 | > 0.1 µM | 0.952 | > 0.512 µM | 0.489 | 0.934 µM | 0.99 | > 10.2 µM |
| SH-4 (melanoma, adherent) | 0.925 | > 2 µM | 0.91 | > 16 µM | 0.97 | > 0.1 µM | 0.849 | > 0.512 µM | 0.339 | 0.278 µM | 0.62 | 1.65 µM |
| MC116 (B-cell lymphoma, suspension) | 0.999 | > 2 µM | 0.913 | 10.3 µM | 0.999 | > 0.1 µM | 0.968 | > 0.512 µM | 0.569 | 1.47 µM | 0.897 | 5.97 µM |
| EoL-1-cell (haematopoietic neoplasm, suspension) | 0.848 | 1.23 µM | 0.988 | > 16 µM | 0.987 | > 0.1 µM | 0.569 | 0.0483 µM | 0.195 | 0.143 µM | 0.019 | < 0.04 µM |
| EW-3 (Ewing sarcoma, adherent) | 0.848 | 1.83 µM | 0.984 | > 16 µM | 0.97 | > 0.1 µM | 0.953 | > 0.512 µM | 0.217 | 0.129 µM | 0.911 | > 10.2 µM |
| NCI-H1694 (small cell lung carcinoma, suspension) | 0.989 | > 2 µM | 0.962 | > 16 µM | 0.966 | > 0.1 µM | 0.969 | > 0.512 µM | 0.369 | 0.437 µM | 0.985 | > 10.2 µM |
| SW962 (urogenital system, adherent) | 0.961 | > 2 µM | 0.94 | > 16 µM | 0.966 | > 0.1 µM | 0.951 | > 0.512 µM | 0.239 | 0.143 µM | 0.955 | > 10.2 µM |
| GOTO (neuroblastoma, adherent) | 0.957 | > 2 µM | 0.881 | > 16 µM | 0.963 | > 0.1 µM | 0.952 | > 0.512 µM | 0.435 | 0.649 µM | 0.886 | > 10.2 µM |
| PL-21 (acute myeloid leukaemia, suspension) | 0.85 | 1.93 µM | 0.837 | 13.4 µM | 0.98 | > 0.1 µM | 0.965 | > 0.512 µM | 0.571 | 1.62 µM | 0.75 | 3.85 µM |
| MRK-nu-1 (breast, suspension) | 0.989 | > 2 µM | 0.81 | 7.59 µM | 0.989 | > 0.1 µM | 0.871 | 0.414 µM | 0.194 | 0.136 µM | 0.899 | > 10.2 µM |
| EW-24 (Ewing sarcoma, semi-adherent) | 0.943 | > 2 µM | 0.99 | > 16 µM | 0.992 | > 0.1 µM | 0.984 | > 0.512 µM | 0.47 | 0.838 µM | 0.884 | 8.71 µM |
| SHP-77 (small cell lung carcinoma, semi-adherent) | 0.99 | > 2 µM | 0.962 | > 16 µM | 0.991 | > 0.1 µM | 0.977 | > 0.512 µM | 0.559 | 1.43 µM | 0.923 | > 10.2 µM |
| DU-4475 (breast, suspension) | 0.975 | > 2 µM | 0.955 | > 16 µM | 0.992 | > 0.1 µM | 0.893 | 0.41 µM | 0.069 | < 0.0625 µM | 0.476 | 0.559 µM |
| NCI-H1155 (large cell lung carcinoma, suspension) | 0.993 | > 2 µM | 0.972 | > 16 µM | 0.993 | > 0.1 µM | 0.993 | > 0.512 µM | 0.401 | 0.563 µM | 0.961 | > 10.2 µM |
| RC-K8 (B-cell lymphoma, suspension) | 0.993 | > 2 µM | 0.972 | > 16 µM | 0.969 | > 0.1 µM | 0.993 | > 0.512 µM | 0.578 | 1.58 µM | 0.919 | > 10.2 µM |
| MONO-MAC-6 (acute myeloid leukaemia, suspension) | 0.784 | 0.902 µM | 0.905 | > 16 µM | 0.981 | > 0.1 µM | 0.675 | 0.102 µM | 0.212 | 0.134 µM | 0.901 | > 10.2 µM |

Reference: the supplement of paper PMC4967469
